# From PubChem BioAssay AID651820 (National Center for Advancing Translational Sciences (NCATS), 2012)
# In all, about 340,000 compounds went through this assay and about 12,000 (3.5%) were called active. The shares of active, inactive and inconclusive entries below differ from those in the screen. Calls come from the whole dose curve; as a rule, active = well fitted inhibition curve with a large enough effect; inconclusive = small, poorly fitted or top-dose-only effect, or another doubt; inactive = no such curve, though single readings can be large or run the other way. No potency is given beside an inconclusive call; the fits are too rough.
# Assay: qHTS Assay for Inhibitors of Hepatitis C Virus (HCV)
# Settings: Huh7.5.1 HCVcc-Cre (HCVcc is cell-culture hepatitis C virus) infection, luciferase reporter, 44 h; activity change, negative = inhibition: at 41.8 µM (top of the series) unless noted
# How it was run: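 After 44 h co-culture of compound, cells and HCVcc-Cre (~0.5 moi), substrate is added for 15 min at room temperature and luciferase measured over 15 sec. Cells were seeded at 1,000/well and pre-cultured 4 h.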
# % is set by controls: 0 for no effect and ±100 for the full control effect; potency is the fitted concentration of half-maximal effect; tags give direction and shape of the fitted curve.
Compound,Potency,"activity change, negative = inhibition"
O=C(CCCSc1ccccc1)Nc1ccc(Cl)c(S(=O)(=O)N2CCOCC2)c1,"inconclusive [inhibitor, partial curve]",–
O=C(Nc1cc(C(F)(F)F)ccc1N1CCOCC1)c1cccnc1Cl,inactive,–
CCC1CN(C(=O)NCc2ccccc2)c2cc(Cl)ccc2O1 (configuration not stated),active: 5.62 µM,–
COc1ccc(CNC(=O)Nc2cccc(C(F)(F)F)c2)cc1OC,inactive,–
c1cn(CCCNc2ncnc3sc4c(c23)CCC4)cn1,inactive,–
CCOC(=O)C(NC(=O)NCc1ccccc1OC)(OCC)C(F)(F)F (configuration not stated),inactive,–
CCOC(=O)c1ccc(NC(=O)CSc2ccc(-c3ccccn3)nn2)cc1,"inconclusive [inhibitor, single point]",–
Cc1cc(C(=O)CCC(=O)N2CCN(S(=O)(=O)c3ccccc3)CC2)c(C)s1,inactive,–
CN(C=O)c1ccc(CSc2ccccc2)cc1,inactive,–
N/C(=N\OC(=O)c1ccc(Cl)cc1Cl)c1cccnc1,"inconclusive [inhibitor, single point]",–
Cc1ccc(S(=O)(=O)N2CCN(c3ccccc3)CC2)s1,inactive,–
CC1CCCCC1NC(=O)c1cccc(S(=O)(=O)N2CCN(Cc3ccccc3)CC2)c1 (configuration not stated),"inconclusive [inhibitor, single point]",–
CC(=O)N1CCN(CC(=O)Nc2cccc(S(=O)(=O)N3CCCCC3)c2)CC1,inactive,–
Nc1cc(=O)[nH]c(SCC(=O)N2CCC(Cc3ccccc3)CC2)n1,active: 14.1 µM,–
CCCn1nc(C(=O)Nc2cccc(S(=O)(=O)N(C)c3ccccc3)c2)c2ccccc2c1=O,"inconclusive [inhibitor, partial curve]",–
O=C(NCCC1=CCCCC1)C1CCN(Cc2cnn(-c3ccccc3)c2-n2cccc2)CC1,"inconclusive [inhibitor, single point]",–
Cc1cccc(NC(=O)COc2coc(CN3CCN(c4ccccc4)CC3)cc2=O)c1C,"inconclusive [inhibitor, full curve]",–
CN(C)c1ccc(/C=N/NC(=O)CNC(=O)c2ccncc2)cc1,inactive,–
CN(C)c1cccc(C(=O)OCC(=O)NC(=O)NCc2ccccc2)c1,"inconclusive [inhibitor, partial curve]",–
Cc1nc(-c2ccccc2)[nH]c(=O)c1Oc1ccc(Cl)cc1Cl,inactive,–
CCn1c(CN2CCN(C(c3ccccc3)c3ccccc3)CC2)nc2c1c(=O)n(C)c(=O)n2C,"inconclusive [inhibitor, single point]",–
O=C(Nc1ccccc1N1CCCCC1)c1cccc(OC(F)F)c1,"inconclusive [inhibitor, partial curve, poor fit]",–
Cc1ccc(-c2cc(-c3ccc(C)cc3)[n+](-c3ccc(C(=O)[O-])cc3)c(-c3ccc(C)cc3)c2)cc1,active: 2.51 µM,–
CN1CCN(/N=C/c2ccc(Br)cc2)CC1,inactive,–
Cc1oc2ccc(O)cc2c1C(=O)c1ccc(Br)cc1,inactive,–
C[C@H](CO)N1C[C@H](C)[C@@H](CN(C)C(=O)Nc2ccc(C(F)(F)F)cc2)Oc2ccc(NC(=O)NC3CCCCC3)cc2C1=O,"inconclusive [inhibitor, single point]",–

Compound,Potency,"activity change, negative = inhibition"
O=C(CCCn1c(=O)[nH]c2ccccc2c1=O)NCCSCc1ccccc1,inactive,–
COc1ccc(CNC(=O)COc2cc3c(c4oc(=O)cc(C)c24)CCC(C)(C)O3)cc1OC,active: 6.31 µM,–
CN(Cc1ccccc1)c1nc(N)c([N+](=O)[O-])c(NCc2ccccc2)n1,"inconclusive [inhibitor, partial curve]",–
CCSc1cc(N2CCOCC2)nc(-c2ccc(Cl)cc2)n1,"inconclusive [inhibitor, partial curve]",–
Cc1csc(NC(=O)c2ccc(Cl)cc2[N+](=O)[O-])n1,active: 1.58 µM,–
COc1ccc(C(=O)C2CCCN(C(=O)c3ccoc3C)C2)cc1F (configuration not stated),"inconclusive [inhibitor, single point]",–
COc1ccc(C(=O)N/C(=C\c2cccc3ccccc23)C(=O)NCCc2c[nH]c3ccccc23)cc1OC,"inconclusive [inhibitor, single point]",–
Cc1ccccc1CSCCNC(=O)c1ccc(Cl)c(S(=O)(=O)N2CCOCC2)c1,active: 11.2 µM,–
CCN1CCN(c2nc(-c3ccccn3)nc3ccccc23)CC1,inactive,–
NC(=O)c1ccsc1NC(=O)COC(=O)c1cc(Cl)ccc1O,"inconclusive [inhibitor, single point]",–
COc1ccc(-c2cc(C(=O)O)[nH]n2)cc1OC,inactive,–
CCCn1c(SCC(=O)Nc2cccc(C)n2)nnc1C(C)C,inactive,–
CCc1nc2ccc(C(=O)NCCc3ccc(OC)cc3)cc2nc1CC,"inconclusive [inhibitor, partial curve]",–
NS(=O)(=O)c1ccc(NC(=O)c2cccc3cc4ccccc4nc23)cc1,"inconclusive [inhibitor, full curve]",–
C=CCOc1ccc(/C=N/NC(=O)C(=O)Nc2ccccn2)cc1OC,inactive,–
Cc1cc2nnc(SCC(=O)Nc3cc(S(=O)(=O)N4CCOCC4)ccc3Cl)n2c2ccccc12,"inconclusive [inhibitor, single point]",–
Cn1cnnc1SCc1ccc(C(=O)N=Nc2c(O)n(C)c3ccccc23)cc1,inactive,–
Cc1cccc(-c2noc(CNS(=O)(=O)c3ccccc3)n2)c1,inactive,–
CCOc1ccc(CN(C(=O)c2ccccn2)c2ccc(OC)c(Cl)c2)cc1,"inconclusive [inhibitor, partial curve]",–
Cn1ccc(C(=O)OCC(=O)c2ccccc2)n1,inactive,–
COc1ccc(Nc2nc(Nc3ccc(OC)cc3)nc(SC3=NCCS3)n2)cc1,"inconclusive [inhibitor, single point]",–
COc1cccc(C(=O)Nc2ncc3c(n2)CC(c2ccc(OC)cc2OC)CC3=O)c1 (configuration not stated),"inconclusive [inhibitor, partial curve, poor fit]",–
COC(=O)Nc1ccc(S(=O)(=O)N2CCC(Cc3ccccc3)CC2)cc1,inactive,–
CC1=C(C(=O)OCCc2ccccc2)C(c2ccsc2)NC(=O)N1C (configuration not stated),inactive,–
CN(CCOc1ccc(Cl)cc1)C(=O)c1ccc2c(=O)n3c(nc2c1)CCC3,inactive,–
O=C(Nc1ccc2c(c1)OCCO2)C1CCN(c2nnnn2-c2ccccc2)CC1,inactive,–

Compound,Potency,"activity change, negative = inhibition"
CC(=O)NN1C(=O)/C(=C\c2ccccc2)SC1=S,inactive,–
COc1ccc(-n2ccnc2SCC(=O)NCc2ccc(F)cc2)c(OC)c1,"inconclusive [inhibitor, single point]",–
COc1cccc2cc(C(C)=O)c(=O)oc12,inactive,–
COc1cc(C)c(NC(=O)c2cccc(S(=O)(=O)N3CCCC3)c2)cc1OC,"inconclusive [inhibitor, single point]",–
COc1ccc(NC(=O)CCc2ccc(OC)c(OC)c2)cn1,inactive,–
Cc1ccc(CNC(C)c2ccccc2)cc1 (configuration not stated),inactive,–
Cc1cc(C)nc(/N=C(\N)N(Cc2ccccc2)Cc2ccccc2)n1,"inconclusive [inhibitor, single point]",–
CC(C(=O)Nc1cccc(S(=O)(=O)N2CCOCC2)c1)N1CCN(C/C=C/c2ccccc2)CC1 (configuration not stated),"inconclusive [inhibitor, partial curve]",–
CCN(CC)S(=O)(=O)c1ccc(NC2CCCc3ccccc32)nc1 (configuration not stated),"inconclusive [inhibitor, single point]",–
COc1cc(SC)ccc1C(=O)Nc1ccc2c(c1)OCCO2,"inconclusive [inhibitor, single point]",–
CC1(C)CCCN(C(=O)c2ccc3c(c2NCCO)C(=O)c2ccccc2C3=O)C1,"inconclusive [inhibitor, single point]",–
Cc1ccc2cc(CN(C(=O)c3ccco3)c3ccccc3)c(=O)[nH]c2c1,"inconclusive [inhibitor, single point]",–
c1ccc(-n2ncc3c(NCc4ccccn4)ncnc32)cc1,inactive,–
COCCOC(=O)C1=C(C)NC(=O)NC1c1ccc(-c2ccc(F)cc2)o1 (configuration not stated),inactive,–
COc1ccc(NC(C)C(=O)Nc2ccc(C#N)cc2)cc1Cl (configuration not stated),inactive,–
CC1=C(C(=O)OCc2ccccc2)C(c2ccc(C#N)cc2)NC(=O)N1CCCC(=O)O (configuration not stated),–,inactive: -16.4% [at 8.37 µM]
COc1ccc(OC)c2sc(N(CCCN(C)C)C(=O)CCS(=O)(=O)c3ccccc3)nc12,"inconclusive [inhibitor, single point]",–
O=C1C=C(Nc2ccc(O)cc2)C(=O)c2ccccc21,"inconclusive [inhibitor, partial curve]",–
O=C(NCC1CCCO1)c1cn(Cc2ccccc2)nc1-c1ccc(Cl)cc1 (configuration not stated),inactive,–
CC(C)c1ccc(NC(=O)Nc2cnccn2)cc1,"inconclusive [inhibitor, single point]",–
COc1ccccc1CN(Cc1cc2cc(C)ccc2[nH]c1=O)Cc1nnnn1Cc1ccco1,active: 12.6 µM,–
CC(C)CC(C)N1CCC(n2nccc2NC(=O)CCc2ccccc2)CC1 (configuration not stated),"inconclusive [inhibitor, single point]",–
COc1cc(OC)cc(C(=O)Nc2ccccc2N2CCOCC2)c1,"inconclusive [inhibitor, partial curve]",–
NNC(=O)CN1C(c2ccc(Cl)cc2)=Nc2ccc(Br)cc2C1c1ccccc1 (configuration not stated),inactive,–
COCCn1cnc2c1c(=O)n(CC(=O)OCC(=O)NCC(F)(F)F)c(=O)n2Cc1ccccc1,inactive,–
